{"source": "patent US20230136595A1", "about": "(Ablynx, published 2023)", "biological_target": "T1, human serum albumin (human, UniProt P02768)", "T1 construct": "also called HSA", "assay": "direct binding ELISA on coated HSA; CEX top fraction depleted of the conformational variant; reference neither enriched nor depleted"}
{"binder": "Compound A (VHH, Pentavalent, trispecific ISVD construct in one chain: OX40L ISVD-9GS-OX40L ISVD-9GS-TNFa ISVD-9GS-HSA ISVD-9GS-TNFa ISVD; Tested as CEX fractions enriched in or depleted of a compact conformational variant; The sample is named in the label and assay of each row; also called F02730252) DVQLVESGGGVVQPGGSLRLSCAASGRTFSSIYAKGWFRQAPGKEREFVAAISRSGRSTSYADSVKGRFTISRDNSKNTVYLQMNSLRPEDTALYYCAAVGGATTVTASEWDYWGQGTLVTVSSGGGGSGGGSEVQLVESGGGVVQPGGSLRLSCAASGRTFSSIYAKGWFRQAPGKEREFVAAISRSGRSTSYADSVKGRFTISRDNSKNTVYLQMNSLRPEDTALYYCAAVGGATTVTASEWDYWGQGTLVTVSSGGGGSGGGS[about 120 residues not written out]GGGGSGGGSEVQLVESGGGVVQPGGSLRLSCAASGFTFRSFGMSWVRQAPGKGPEWVSSISGSGSDTLYADSVKGRFTISRDNSKNTLYLQMNSLRPEDTALYYCTIGGSLSRSSQGTLVTVSSGGGGSGGGSEVQLVESGGGVVQPGGSLRLS[about 80 residues not written out]RGQGTLVKVSSA", "values": [{"measurement": "potency relative to a reference", "result": "0.912 relative to reference"}]}
